{"source": "the supplement of paper PMC10600219", "note": "Structures can show the parent of a compound that is named as a salt. Over roughly 2,800 compounds, “cell viability relative to vehicle” has its median near 0.98; the lowest 2% begin near 0.45. Some of the results follow.", "data": [{"tested_on": "NCI-H2228 alectinib-DTP", "experiment": "cell viability relative to vehicle (fraction of vehicle); NCI-H2228 is an ALK-positive lung cancer line and DTP means drug-tolerant persister; higher = less growth inhibition", "conditions": "100 nM; treatment time 6 days", "outline": "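Drug-tolerant persister NCI-H2228 cells, produced by 13 days in 1000 nM of a targeted drug, and their parental counterparts were seeded into 384-well plates and, the following day, given the 3114-agent TargetMol anti-cancer compound library at 100 nM or DMSO vehicle. After 6 days, the CellTiter-Glo 3D Cell Viability Assay was used to read ATP. Each entry reports viability compared with vehicle-treated cells.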", "values": [{"molecule": "COc1c2c(cc3oc(CO[C@@H]4O[C@H](CO)[C@@H](O)[C@H](O)[C@H]4O)cc(=O)c13)O[C@H](C(C)(C)O)C2", "note": "[Cimifugin beta-D-glucopyranoside]", "cell viability": 0.952}, {"molecule": "CC(C)(C)c1nc2c3cc[nH]c(=O)c3c3cc(F)ccc3c2[nH]1", "note": "[Pyridone 6]", "cell viability": 0.907}, {"molecule": "CC(=O)O[C@]1(C(C)=O)CC[C@H]2[C@@H]3C[C@H](C)C4=CC(=O)CC[C@]4(C)[C@H]3CC[C@@]21C", "note": "[Medroxyprogesterone Acetate]", "cell viability": 0.833}, {"molecule": "O=C(O)c1cc(-c2ccccc2)nc2ccccc12", "note": "[Cinchophen]", "cell viability": 0.968}, {"molecule": "COc1cc2c(Oc3ccc4[nH]c(C)cc4c3F)ncnc2cc1OCCCN1CCCC1", "note": "[Cediranib]", "cell viability": 0.891}, {"molecule": "O=c1nc(N2CCN(CC3CCCCC3)CC2)sc2c([N+](=O)[O-])cc(C(F)(F)F)cc12", "cell viability": 0.985}, {"molecule": "COc1ccc(C(NC(=O)c2cnc(-c3cccnn3)[nH]c2=O)c2ccc(OC)cc2)cc1", "cell viability": 0.898}, {"molecule": "Nc1nc(NCCc2ccc(O)cc2)nc2nc(-c3ccco3)nn12", "cell viability": 1.13}, {"molecule": "Cc1nc(-c2cn3c(n2)-c2ccc(-c4cnn(C(C)(C)C(N)=O)c4)cc2OCC3)n(C(C)C)n1", "note": "[Taselisib]", "cell viability": 0.425}, {"molecule": "Cc1c(F)cc(C(=O)NC2CC2)cc1-c1ccc(C(=O)NCC(C)(C)C)cn1", "note": "[Losmapimod]", "cell viability": 0.986}, {"molecule": "CNC(C)C1CCC(N)C(OC2C(N)CC(N)C(OC3OCC(C)(O)C(NC)C3O)C2O)O1", "note": "(stereo not drawn) [Gentamycin sulfate]", "cell viability": 0.869}, {"molecule": "COc1ccc(S(=O)(=O)N(C(C)=O)c2ccccc2/C=C/c2cc[n+]([O-])cc2)cc1", "cell viability": 0.926}, {"molecule": "CC1(C)CC[C@]2(C(=O)O)CC[C@]3(C)C(=CC[C@@H]4[C@@]5(C)CC[C@H](O)[C@@](C)(CO)[C@@H]5CC[C@]43C)[C@@H]2C1", "note": "[Hederagenin]", "cell viability": 1.17}, {"molecule": "Cc1cc(C)c(/C=C2\\C(=O)Nc3ccccc32)[nH]1", "note": "[Semaxanib]", "cell viability": 0.807}, {"molecule": "O=C(NOC[C@H](O)CO)c1ccc(F)c(F)c1Nc1ccc(I)cc1F", "cell viability": 0.773}, {"molecule": "O=C1CC2(CCCC2)CC(=O)N1CCCCN1CCN(c2ncccn2)CC1", "note": "[Buspirone hydrochloride]", "cell viability": 1.04}, {"molecule": "COc1ccc2c(c1)C(c1ccc(F)cc1)=C(CN1CCCC1)CO2", "cell viability": 1.19}, {"molecule": "CCC(=O)Oc1ccc2c(c1)CCC1C2CCC2(C)C(OC(=O)CC)CCC12", "note": "(stereo not drawn) [17-Beta-Estradiol-3,17-Dipropionate]", "cell viability": 1.18}, {"molecule": "Nc1ncnc2c1c(I)cn2[C@@H]1O[C@H](CO)[C@@H](O)[C@H]1O", "note": "[5-Iodotubercidin]", "cell viability": 0.929}, {"molecule": "C[C@H](CCC(=O)O)[C@H]1CC[C@H]2[C@@H]3CC[C@@H]4C[C@H](O)CC[C@]4(C)[C@H]3C[C@H](O)[C@]12C", "note": "[Deoxycholic acid]", "cell viability": 1.12}, {"molecule": "Nc1ccc2cc3ccc(N)cc3nc2c1", "note": "[Proflavine Hemisulfate]", "cell viability": 1.23}, {"molecule": "O=C(NCCCNc1nc(Nc2cccc(CN3CCOCC3)c2)ncc1C1CC1)C1CCC1", "cell viability": 0.948}, {"molecule": "Cc1cc(CC(=O)O)n(C)c1C(=O)c1ccc(Cl)cc1", "note": "[Zomepirac Sodium]", "cell viability": 0.967}, {"molecule": "CN1CCN(CCOc2cc(OC3CCOCC3)c3c(Nc4c(Cl)ccc5c4OCO5)ncnc3c2)CC1", "note": "[Saracatinib]", "cell viability": 0.998}, {"molecule": "CCOCC(O)COc1ccc(NC(=O)CC[S+](C)C)cc1", "note": "(stereo not drawn) [Suplatast tosilate]", "cell viability": 0.952}, {"molecule": "O=C(O)c1ccc(CN2CCC(CN[C@@H]3C[C@H]3c3ccccc3)CC2)cc1", "cell viability": 0.994}, {"molecule": "O=C(/C=C\\n1cnc(-c2cc(C(F)(F)F)cc(C(F)(F)F)c2)n1)NNc1ccccn1", "note": "[Verdinexor]", "cell viability": 0.835}, {"molecule": "O=C(CCCCCCNC(=O)c1cnc(N(c2ccccc2)c2ccccc2Cl)nc1)NO", "note": "[Citarinostat]", "cell viability": 1}, {"molecule": "CC1Cc2ccccc2N1NC(=O)c1ccc(Cl)c(S(N)(=O)=O)c1", "note": "(stereo not drawn) [Indapamide]", "cell viability": 1.01}, {"molecule": "CCC(=O)c1c(O)cc(O)cc1O", "note": "[Flopropione]", "cell viability": 1.17}, {"molecule": "C=CC(=O)Nc1ccc2ncnc(Nc3cccc(Br)c3)c2c1", "cell viability": 0.726}, {"molecule": "N#Cc1ccnc(N2C(=O)CC[C@H]2C(=O)N(c2cncc(F)c2)[C@H](C(=O)NC2CC(F)(F)C2)c2ccccc2Cl)c1", "note": "[Ivosidenib]", "cell viability": 0.978}, {"molecule": "CNC(=O)c1cnn(-c2nc(N)c3ncn([C@@H]4O[C@H](CO)[C@@H](O)[C@H]4O)c3n2)c1", "note": "[Regadenoson]", "cell viability": 0.93}, {"molecule": "O=c1cc(-c2ccc(O)c(-c3c(O)cc(O)c4c(=O)cc(-c5ccc(O)cc5)oc34)c2)oc2cc(O)cc(O)c12", "note": "[Amentoflavone]", "cell viability": 0.999}, {"molecule": "COc1ccc(CCC(=O)c2ccc(O)cc2)c(OC)c1", "note": "[Loureirin A]", "cell viability": 0.94}, {"molecule": "COc1ccccc1S(=O)(=O)Nc1ccc2c(c1)CN(C)C(=O)N2", "cell viability": 1.13}, {"molecule": "C1CCN2C[C@@H]3C[C@@H](CN4CCCC[C@@H]34)[C@H]2C1", "note": "[(-)-Sparteine sulfate pentahydrate]", "cell viability": 0.87}, {"molecule": "CCN1CCN(c2cc3c(cc2F)c(=O)c(C(=O)O)cn3C2CC2)CC1", "note": "[Enrofloxacin]", "cell viability": 0.897}, {"molecule": "CN(C(=O)CNC(=O)/C=C/c1cccc(Cl)c1)C1CCS(=O)(=O)CC1", "cell viability": 0.805}, {"molecule": "FC(F)c1nc2ccccc2n1-c1nc(N2CCOCC2)nc(N2CCOCC2)n1", "cell viability": 0.837}, {"molecule": "COc1ccc(/C=C/C(=O)c2c(O)cc(OC)cc2OC)cc1", "note": "[Flavokawain A]", "cell viability": 1.13}, {"molecule": "NC(=O)Cc1cc[nH]n1", "note": "[1H-Pyrazole-3-acetamide]", "cell viability": 0.863}, {"molecule": "COc1cc(NS(C)(=O)=O)ccc1Nc1c2ccccc2nc2ccccc12", "note": "[Amsacrine]", "cell viability": 0.71}, {"molecule": "CN(C)c1ccc(/C=C2/C(=O)Nc3ccccc32)cc1", "cell viability": 1.03}, {"molecule": "Cc1nnc(NS(=O)(=O)c2ccc(N)cc2)s1", "note": "[Sulfamethizole]", "cell viability": 1.05}, {"molecule": "O=C(O)COC(=O)Cc1ccccc1Nc1c(Cl)cccc1Cl", "note": "[Aceclofenac]", "cell viability": 1.09}, {"molecule": "CC(C)Oc1ccc(C(=O)N[C@H](CNC(=O)CN(C)C)Cc2ccc(-c3cn4cccc([C@H](C)O)c4n3)cc2)cc1Cl", "cell viability": 0.665}, {"molecule": "CC1(C)OCCn2c1nc1c(N3CCOCC3)nc(-c3cnc(N)nc3)nc12", "cell viability": 0.684}, {"molecule": "C[C@@H]1C[C@H]2[C@@H]3CCC4=CC(=O)C=C[C@]4(C)[C@@]3(F)[C@@H](O)C[C@]2(C)[C@@]1(O)C(=O)CO", "note": "[Dexamethasone]", "cell viability": 0.859}, {"molecule": "COc1cc(O)cc(O)c1C(=O)/C=C/c1ccccc1", "note": "[Cardamonin]", "cell viability": 1.05}, {"molecule": "CC1(C)O[C@@H]2C[C@H]3[C@@H]4CCC5=CC(=O)C=C[C@]5(C)[C@@]4(F)[C@@H](O)C[C@]3(C)[C@]2(C(=O)CO)O1", "note": "[Triamcinolone acetonide]", "cell viability": 0.706}, {"molecule": "O=C(O)CCCc1ccccc1", "note": "[Sodium Phenylbutyrate]", "cell viability": 0.97}, {"molecule": "Cc1cnc(NC(=O)C2=C(O)c3ccccc3S(=O)(=O)N2C)s1", "note": "[Meloxicam]", "cell viability": 0.968}, {"molecule": "COc1cc(O)c(C(=O)Nc2nc(C(=O)NCCN(C(C)C)C(C)C)cs2)cc1OC", "note": "[Acotiamide hydrochloride]", "cell viability": 0.908}, {"molecule": "Cc1cc([C@@H](C)Nc2ccccc2C(=O)O)c2nc(N3CCOCC3)cc(=O)n2c1", "cell viability": 0.757}, {"molecule": "CC(C)(Oc1ccc(C(=O)c2ccc(Cl)cc2)cc1)C(=O)O", "note": "[Fenofibric acid]", "cell viability": 1.01}, {"molecule": "CCOc1nc2cccc(C(=O)O)c2n1Cc1ccc(-c2ccccc2-c2noc(=O)[nH]2)cc1", "note": "[Azilsartan]", "cell viability": 1.17}, {"molecule": "CCn1nc(C(=O)O)c(=O)c2cc3c(cc21)OCO3", "note": "[Cinoxacin]", "cell viability": 0.972}, {"molecule": "Cc1cc(C)cc(C(=O)NOCCCCCC(=O)NO)c1", "cell viability": 0.842}, {"molecule": "N[C@@H]1CC[C@@H](c2ccc(Cl)c(Cl)c2)c2ccccc21", "note": "[Dasotraline hydrochloride]", "cell viability": 1.02}, {"molecule": "CCCc1nc(C)c2c(=O)nc(-c3cc(S(=O)(=O)N4CCN(CC)CC4)ccc3OCC)[nH]n12", "note": "[Vardenafil hydrochloride trihydrate]", "cell viability": 1.02}, {"molecule": "CNC(=O)c1cc(COc2nnc(Nc3ccc(Cl)cc3)c3ccoc23)ccn1", "note": "[Telatinib]", "cell viability": 0.971}, {"molecule": "O=C1CCc2ccccc2C1", "note": "[Beta-Tetralone]", "cell viability": 0.95}, {"molecule": "COc1cc2nccc(Oc3ccc(NC(=O)C4(C(=O)Nc5ccc(F)cc5)CC4)cc3)c2cc1OC", "note": "[Cabozantinib Malate]", "cell viability": 0.725}, {"molecule": "COc1cc2nccc(Oc3ccc(NC(=O)C4(C(=O)Nc5ccc(F)cc5)CC4)cc3)c2cc1OC", "note": "[Cabozantinib]", "cell viability": 0.872}, {"molecule": "O=C(O)/C=C/c1ccc(Cn2ccnc2)cc1", "note": "[Ozagrel]", "cell viability": 1.05}, {"molecule": "O=C(O)/C=C/c1ccc(Cn2ccnc2)cc1", "note": "[Ozagrel hydrochloride]", "cell viability": 0.927}, {"molecule": "C[C@]12CC[C@@H]3c4ccc(O)cc4CC[C@H]3[C@@H]1CC[C@H]2O", "note": "[17α-Estradiol]", "cell viability": 0.962}, {"molecule": "COc1cccc(/C=N/N(C(=O)C(F)(F)F)c2ccc(C)cc2C)c1", "cell viability": 0.889}, {"molecule": "CNC(=O)[C@H](Cc1c[nH]c2ccccc12)NC(=O)[C@@H](CC(=O)NO)CC(C)C", "note": "[Ilomastat]", "cell viability": 0.877}, {"molecule": "CC(C)C1=CC2=CC[C@@H]3[C@](C)(CCC[C@@]3(C)C(=O)O)[C@H]2CC1", "note": "[Abietic Acid]", "cell viability": 0.994}, {"molecule": "Oc1ccc(OCc2ccccc2)cc1", "note": "[Monobenzone]", "cell viability": 1.15}, {"molecule": "NC1(C(=O)N[C@@H](CCO)c2ccc(Cl)cc2)CCN(c2nc[nH]c3nccc2-3)CC1", "note": "[Capivasertib]", "cell viability": 0.829}, {"molecule": "CC1=Nc2ccc(Cl)cc2S(=O)(=O)N1", "note": "[Diazoxide]", "cell viability": 0.974}, {"molecule": "Cc1ncc(NC(=O)c2ccc(CN3CCN(C)CC3)c(C(F)(F)F)c2)cc1Nc1nccc(-c2cccnc2)n1", "note": "[Flumatinib]", "cell viability": 1.15}, {"molecule": "Cc1cc(/N=N/c2ccc(S(=O)(=O)Nc3ccccn3)cc2)c(N)cc1O", "cell viability": 0.977}, {"molecule": "COc1cc(O)c(CC=C(C)C)c(O)c1C(=O)/C=C/c1ccc(O)cc1", "note": "[Xanthohumol]", "cell viability": 1.04}, {"molecule": "CO[C@@]12[C@H](COC(N)=O)C3=C(C(=O)C(C)=C(N)C3=O)N1C[C@@H]1N[C@@H]12", "note": "[Mitomycin C]", "cell viability": 1.06}]}]}
